The values below come from publication PMC7819943, “Rice protein-binding microarrays: a tool to detect cis-acting elements near promoter regions in rice”.

This is one part of the list.

This test has as its target T1, OsWOX13 (Oryza sativa, UniProt Q5QMM3 1-267).
T1 sequence: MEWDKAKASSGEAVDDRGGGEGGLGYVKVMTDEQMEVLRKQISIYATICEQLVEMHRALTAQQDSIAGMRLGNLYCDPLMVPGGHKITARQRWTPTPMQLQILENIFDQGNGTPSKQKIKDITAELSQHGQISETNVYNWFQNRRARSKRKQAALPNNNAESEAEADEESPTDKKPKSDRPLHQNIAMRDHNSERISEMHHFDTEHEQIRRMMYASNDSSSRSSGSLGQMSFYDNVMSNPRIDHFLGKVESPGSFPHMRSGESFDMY
The test is described as follows: protein-binding microarray (RPBM); PBS, 2% BSA, 51.3 ng/ul salmon testes DNA, 50 uM zinc acetate, 200 nM TF, 25 C, 1 h; high values mean tight binding. The conditions noted are these: protein: recombinant; tags: N-terminal polyhistidine and DsRed monomer fusion (pET32a); label: CyDye5-dUTP incorporated in the synthesized complementary strand; 3' TTTTT single-stranded linker to array surface; dsDNA, one strand shown. Put shortly:
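A custom Agilent array was converted to double-stranded form by primer extension with Cy5-dUTP and blocked with 2% BSA. Protein at 200 nM in PBS with 2% BSA, salmon testes DNA and 50 µM zinc acetate was applied for 1 h at 25 °C, followed by washing. The proteins were polyhistidine–DsRed N-terminal fusions of transcription factors, expressed in E. coli BL21-CodonPlus and Ni–NTA-purified. The binding signal is per-feature fluorescence intensity (arbitrary units) from an Axon 4000B scanner.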
As to “ATAGGATTGAAATACTCTAAAATTCCTGTGTTTTCCTCCACGGAGTCACCTAGTGCAG”, the binding signal was 10800 fluorescence intensity (a.u.).

Turning to “TTACACTACGATTGTACTGTAATTACATCTGTCAAATTTTCGGAGTCACCTAGTGCAG”, the binding signal is 6320 fluorescence intensity (a.u.). “AAACTGATTGTCAGACCGAGAGGGTTAAACAATGTCTGGACGGAGTCACCTAGTGCAG”: the binding signal is 32600 fluorescence intensity (a.u.).

For the sequence “CTAGCCACTTGGTATAATTGACTGAGTCTTGATAAAGCTTCGGAGTCACCTAGTGCAG”, the binding signal was 7350 fluorescence intensity (a.u.). The same measure for “TAGTTTAATCAATTTCAGATATGAAAAGGGTAATTTCAGGCGGAGTCACCTAGTGCAG”: 5350 fluorescence intensity (a.u.). For “TCGACTTCTGATTGATGTCAGTAATGGTGTACCAGTGCTGCGGAGTCACCTAGTGCAG”, the binding signal is 41200 fluorescence intensity (a.u.). The same measure for “TCGATCCATTTGGCCATTAATTACAGCTGGGATGGATAATCGGAGTCACCTAGTGCAG”: 4190 fluorescence intensity (a.u.); for “ATGATGATTGGTTGGTTACGGGCATGTTCAGATTGTAGCCCGGAGTCACCTAGTGCAG”: 54900 fluorescence intensity (a.u.).

For the sequence “CCATGATGATGAGTCATTTTAACAGTCTGCAAGTACTAAACGGAGTCACCTAGTGCAG”, the binding signal is 8500 fluorescence intensity (a.u.). Next, “GTGACTATTCCAATTAGCTACTATCAATGATGTGTATGGACGGAGTCACCTAGTGCAG”: 23100 fluorescence intensity (a.u.); “GGTTTGATTGGTTGGAAACAGAGGGGTTCTACTGCTGCGACGGAGTCACCTAGTGCAG”: 55700 fluorescence intensity (a.u.); “TAAATAATTTATGTTTGATATCTTAAAACAGTGCGTGTTACGGAGTCACCTAGTGCAG”: 16600 fluorescence intensity (a.u.). In the case of “AGATTTAATTATAACGAATTCAATGGTGTGATCGAATCGCCGGAGTCACCTAGTGCAG”, the binding signal was 8330 fluorescence intensity (a.u.). Regarding “TTTGGTGATTTGAAAACCATCTTTTATGCACTGGTTAGATCGGAGTCACCTAGTGCAG”, the binding signal is 11500 fluorescence intensity (a.u.). The same measure for “TTGGTAATTTATTTAATAAGTTATAGTTATATGAATGGTCCGGAGTCACCTAGTGCAG”: 24500 fluorescence intensity (a.u.). On to “CCAGTAATCAAAGTTAACATAACTACTATTAGAATGTACTCGGAGTCACCTAGTGCAG”, for which the binding signal was 11100 fluorescence intensity (a.u.). For the sequence “GCATAAACATATAAATTGAAATTCGTCTTCTACAAGTTGTCGGAGTCACCTAGTGCAG”, the binding signal is 23300 fluorescence intensity (a.u.). Next, “AGGTCAATCAAAACCCGCCGATCGTACTAACCGTGAATTACGGAGTCACCTAGTGCAG”: 7850 fluorescence intensity (a.u.). “GTGGATGCTATTTTAATTTAATTATTATTATACGGTTTAGCGGAGTCACCTAGTGCAG”: the binding signal is 6640 fluorescence intensity (a.u.). With “GTTAATGTTAATGGGTCTCGTGCAGTGAATGCAACTCTGGCGGAGTCACCTAGTGCAG”, the binding signal is 4610 fluorescence intensity (a.u.). Take “ACTTAACTTATGATATAAATGACCTGTACAATTTCATCGACGGAGTCACCTAGTGCAG”: the binding signal was 8670 fluorescence intensity (a.u.). Next, “CCAAACACTTCCATCCAATCATCCAAAATGTAACAAAGAACGGAGTCACCTAGTGCAG”: 3650 fluorescence intensity (a.u.); “TCCTTTATTATCTGTAATTGTAAAATCTTCAGATGAACACCGGAGTCACCTAGTGCAG”: 6210 fluorescence intensity (a.u.); “CCTGATAATAAGGATCAATCAGAGGAAGAAGAGCCTATCACGGAGTCACCTAGTGCAG”: 16200 fluorescence intensity (a.u.). On to “ACCACTAAATATTCTTAAATGATTATATTAAAATGAGCATCGGAGTCACCTAGTGCAG”, for which the binding signal is 8360 fluorescence intensity (a.u.). Take “TAAGGTGCAGATTGATTTGCCATCCCAGAGCAGCAGCTTGCGGAGTCACCTAGTGCAG”: the binding signal was 29500 fluorescence intensity (a.u.). For “TCCGTCTCTCACCTTCAATCAAACTACAGAAATCTGAACCCGGAGTCACCTAGTGCAG”, the binding signal was 7900 fluorescence intensity (a.u.). The same measure for “ATCTGTACAGTTTGTGACTAATTTGCAAGACGAATCTTTTCGGAGTCACCTAGTGCAG”: 6130 fluorescence intensity (a.u.). Regarding “GCCATCAATCATTAACAAAACCAAACCCACACCCAGAAATCGGAGTCACCTAGTGCAG”, the binding signal is 15900 fluorescence intensity (a.u.). Consider “AAGACGACAATGATTTTCCTTCTCACTCGTCATCCCTTGTCGGAGTCACCTAGTGCAG”, for which the binding signal was 5190 fluorescence intensity (a.u.). For the sequence “CTATACAATCACGGGAATGTTGCAGCATCTGCTGCTGCCACGGAGTCACCTAGTGCAG”, the binding signal is 5390 fluorescence intensity (a.u.). Turning to “TGGAAATTGATGGAGGATGATCTGCAATTAGAAAGAAGAACGGAGTCACCTAGTGCAG”, the binding signal is 29700 fluorescence intensity (a.u.). As for “CGAATTTTATATTGGTCAATCAAACTCATACGGAGAAATACGGAGTCACCTAGTGCAG”, the binding signal was 6510 fluorescence intensity (a.u.).

In the case of “GTCGCTGTTCTAAATGATTTCCATTACGAGTATTTACGAGCGGAGTCACCTAGTGCAG”, the binding signal was 4960 fluorescence intensity (a.u.). Consider “TTTTATAGTCATTGATAGACAAAATTATATAAGATTATCGCGGAGTCACCTAGTGCAG”, for which the binding signal is 15400 fluorescence intensity (a.u.).

“TTTAAATATAGACTGTTATTATTGTTTAGTATTGCGTTATCGGAGTCACCTAGTGCAG”: the binding signal was 7200 fluorescence intensity (a.u.). Next, “GCCTGACACGATGGGTAATTAAATAGTTATGCATGTCCCTCGGAGTCACCTAGTGCAG”: 15200 fluorescence intensity (a.u.); “ATGGGATTGCTCATCATGTTTTGGCTTCCGGCTGGCTAACCGGAGTCACCTAGTGCAG”: 14000 fluorescence intensity (a.u.). The same measure for “AAAATGTTCAATAAACTGAATACAGATTGATACACTCACCCGGAGTCACCTAGTGCAG”: 17700 fluorescence intensity (a.u.); for “ATATTGATTGCATAAAGAAAGTTCGGTCCTGTTCACTTTGCGGAGTCACCTAGTGCAG”: 39900 fluorescence intensity (a.u.); for “GACTAATTCACATAAACAAATCCATCATCTTTAATCCAAACGGAGTCACCTAGTGCAG”: 3380 fluorescence intensity (a.u.). In the case of “CTTGTTAATTGTGAAACTTCGGTCAAAATATATGGTCTAACGGAGTCACCTAGTGCAG”, the binding signal was 9990 fluorescence intensity (a.u.).
